This is one part of the list.
Tested on: T1, C. trachomatis L2/434/Bu expressing GFP (CTL2-GFP)
T1 construct: L2/434/Bu GFP intracellular growth in HeLa cells
Design: species or system HeLa; C. trachomatis total inclusion area by high-content imaging, normalised to DMSO
Settings: total inclusion area; 28.5 h, 10 µM; inhibitor
Summary of the method: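 High-content imaging followed the bulk GFP/resorufin measurement: fixed, Hoechst-stained cells were scored for GFP inclusions and host nuclei per well. Total inclusion area and count served as growth proxies, nuclei number as the viability proxy. MIC calculation matched the bulk assay.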

Row | Compound | % of control remaining
1 | CC1=NN(c2ccccc2)C(=O)/C1=C/Nc1ccc(S(=O)(=O)Nc2nc(C)cc(C)n2)cc1 [CBK262368] | 19.9148
2 | Cc1ccccc1OC(C)C(=O)Nc1ccc(S(=O)(=O)N2CCCC2)cc1 (stereo not shown) [CBK269367] | 110.816
3 | Cc1ccc(CN2CC(C(=O)N3CCC(C(=O)O)CC3)CC2=O)cc1 (stereo not shown) [CBK300205] | 114.706
4 | CCCc1nc2oc3c(-c4ccccc4)c(C(=O)O)c(C)nc3c2c2c1COC(C)(C)C2 [CBK264044] | 78.5834
5 | Cc1nn(Cc2cccc(C(N)=O)c2)c(C)c1Br [CBK022255] | 96.5732
6 | Cc1ccc2nc3c(cc2c1)CNCC(C)O3 (stereo not shown) [CBK281941] | 121.462
7 | O=C(O)c1cccc(Sc2nccc(C(F)(F)F)n2)c1 [CBK115957] | 101.669
8 | C#CCOc1cn([C@H]2C[C@@H](O)[C@@H](CO)O2)c(=O)[nH]c1=O [CBK201278] | 110.161
9 | COC(=O)CN1N=C(C(C)(C)C)Cn2c(cc3ccccc32)C1=O [CBK284204] | 60.7774
10 | O=C(CN1CCC(c2ccccc2F)CC1)NC1CCCC1 [CBK283551] | 85.3606
11 | CCC1(C)CC(=O)c2cc(NC(=O)N3CCc4n[nH]cc4C3)ccc2O1 (stereo not shown) [CBK306846] | 57.4219
12 | COc1ccc2c(c1)c(=O)oc1cc(OCC(=O)N3CCc4ccccc4C3)ccc12 [CBK266346] | 149.72
13 | Cc1nnc(SCC(=O)N/N=C/c2ccncc2)n1-c1ccccc1 [CBK262762] | 101.05
14 | O=C(O)CCCC(=O)NCCc1ccc(Cl)cc1Cl [CBK296930] | 80.7979
15 | COc1ccc(CN2CCN(Cc3ccco3)CC2)cc1OCc1ccccc1 [CBK264225] | 99.5583
16 | Nc1cc2ccccc2nc1C1CCN(C(=O)C2CC=CCC2)CC1 (stereo not shown) [CBK285016] | 102.376
17 | O=C(O)CCSc1nc2ccccc2n1CCOc1ccccc1 [CBK262555] | 94.5617
18 | CCc1ccc(S(=O)(=O)N2CCN(C(c3ccccc3)c3ccccc3)CC2)cc1 [CBK093948] | 99.8989
19 | O=C(CCn1c(=O)oc2ccccc21)Nc1ccc2c(c1)CN(Cc1ccccc1)C2 [CBK285946] | 119.459
20 | CN(C)c1ccc(Nc2cc(Cl)nc3ccnn23)cc1 [CBK037203] | 121.321
21 | COc1cccc(OC)c1OCCCN1CCCCC1 [CBK262719] | 107.132
22 | COc1ccc(OCCCN2C(=O)C3(CC(=O)N(Cc4ccccc4)C3=O)c3cc(OC)ccc32)cc1 (stereo not shown) [CBK075523] | 102.903
23 | Oc1cccc2c1OCO2 [CBK000070] | 15.7183
24 | CN(CC(N)=O)C(=O)CCn1c(=O)oc2cc(Cl)ccc21 [CBK305757] | 23.1212
25 | CC(C)(C)OC(=O)N1CCC(N(CCCO)Cc2ccccn2)CC1 [CBK304246] | 72.4339
26 | CC(C)NC(=O)N1CC[C@H](c2nc3ncccc3[nH]2)C1 [CBK289369] | 85.6097
27 | CCOc1cc(/C=N/NC(=O)CSc2nc(C)cc(C)n2)ccc1O [CBK262405] | 95.4427

Row | Compound | % of control remaining
28 | CCNC(=O)C1(NC(=O)c2cn3ccccc3n2)CCCCC1 [CBK305240] | 46.0409
29 | CN1C(=O)c2ccccc2C(=O)[C@@]2(C)CN(Cc3ccccc3)C[C@@H]12 [CBK284692] | 99.2735
30 | COCCN1CCC2(C/C=C/C[C@H]3COCC[C@H]3NC(=O)CNC2=O)CC1 [CBK292145] | 103.645
31 | Cc1ccc(C(=O)N2CCC[C@@H]3NC(=O)c4ccccc4OCC/C=C/C[C@@H]32)c(O)n1 [CBK292080] | 71.9528
32 | CS(=O)(=O)N(CC(=O)NCc1ccccn1)c1ccc(C23CC4CC(CC(C4)C2)C3)cc1 [CBK268448] | 100.357
33 | CCCn1cnnc1C(C)NS(=O)(=O)c1cccc(C(=O)N2CCC2)c1 (stereo not shown) [CBK306569] | 26.0025
34 | Cc1ccc(OCCSc2nnc(N)[nH]2)cc1 [CBK269334] | 105.253
35 | Cc1ccc(OCCOCCN(C)C)c(Cl)c1 [CBK265493G] | 97.7605
36 | CC(C)(C)C1=CC2=NC3(CCCCCCC3)[C@@H]3C[C@@H](O)[C@@H](O)[C@@H]3N2O1 [CBK303256] | 114.361
37 | c1cnc(N2CCN(Cc3ccc4c(c3)OCO4)CC2)c(OCCN2CCOCC2)n1 [CBK082894T] | 84.4636
38 | Cc1ccccc1CN1CC[C@H]2[C@@H](C1)[C@H](c1ccsc1)CN2C(=O)c1ccc(F)cc1 [CBK285638] | 103.38
39 | CC(C)(C)c1csc(NC(=O)C2CC(=O)N(c3cccc(C(F)(F)F)c3)C2)n1 (stereo not shown) [CBK175545] | 10.6716
40 | CN1CN=C2SC3(COC(c4cccc(Br)c4)OC3)C(=O)N2C1 (stereo not shown) [CBK263700] | 103.14
41 | C(=N\Nc1nc2ccccc2[nH]1)/c1cccnc1 [CBK026357] | 95.5094
42 | C[C@H]1[C@@H]2[C@@H](O)C([C@H](C)C(=O)NC3CC3)CC[C@@]2(C)CC[C@@H]1NC(=O)c1cncnc1 (stereo partly shown) [CBK289453] | 103.483
43 | CCN1CCN(C(=O)c2cccc3[nH]ccc23)CC1 [CBK200246] | 90.6177
44 | COc1ccc(C2(O)CCN(CC(O)c3ccc(C(C)(C)C)cc3)CC2)cc1 (stereo not shown) [CBK286333] | 72.6422
45 | CC1(C)CC(=O)C=C(NCC2CCNCC2)C1 [CBK027580] | 19.8794
46 | COc1cc2oc(=O)c(CC(=O)N[C@@H](CC(C)C)C(=O)O)c(C)c2cc1Cl [CBK286772] | 94.286
47 | Cc1csc2c(C3CCN(C(=O)c4cnn(C)c4)CC3)nc(C)n12 [CBK285250] | 81.7451
48 | Cc1ccc(-c2ccn(C(C)C(=O)N(C)C)n2)cc1 (stereo not shown) [CBK016069] | 52.4943
49 | Cc1cc2nc(NS(C)(=O)=O)n(S(C)(=O)=O)c2cc1C [CBK023112] | 101.39
50 | CCOC(=O)c1[nH]c2ccccc2c1NC(=O)c1cc(F)cc(Cl)c1 [CBK160143] | 98.0694
51 | CC(C)c1nc(CC(=O)NCCC(=O)N2CCCc3ccccc32)cs1 [CBK305437] | 53.4503
52 | COc1ccc(C(=O)C2CCN(Cc3cccc4cccnc34)CC2)cc1 [CBK295192] | 76.3116
53 | Clc1ccccc1CN(CCCn1ccnc1)Cc1c[nH]cn1 [CBK282988] | 76.3273
54 | O=C(NC1(c2cccc(F)c2)CCCC1)c1cnccn1 [CBK283619] | 89.478

Row | Compound | % of control remaining
55 | COc1ccc2[nH]cc(C(C(=O)O)N3CCN(Cc4ccccn4)CC3)c2c1 (stereo not shown) [CBK286846] | 84.1867
56 | COc1ncc(-c2nccnc2N2CCN(C)CC2)c(OC)n1 [CBK036595] | 120.787
57 | CCCCc1noc(CN2CCCC2C(=O)NCc2ccco2)n1 (stereo not shown) [CBK304036] | 25.8096
58 | Cc1ccc(C(=O)N2CCN(C)CC2)c(N2CCOCC2)n1 [CBK106199] | 89.5749
59 | Nc1ncc(-c2cccc3ccccc23)nc1N1CCC[C@@H]1CO [CBK063517] | 55.8862
60 | Cc1cccc(C)c1NC(=O)CN(c1ccc(F)cc1)S(=O)(=O)c1ccc2c(c1)OCCO2 [CBK264878] | 98.0285
61 | CCCN1CCC(CNC(=O)c2cc(C3CC3)nn2C)CC1 [CBK282536] | 115.721
62 | NS(=O)(=O)c1ccc(NC(=O)CCC2COc3ccccc3O2)cc1 (stereo not shown) [CBK267696] | 96.245
63 | COc1ccc([C@@]23CCC(NC(=S)NCc4ccccc4)C[C@@H]2N(Cc2ccccc2)CC3)cc1 (stereo partly shown) [CBK028140] | 51.7665
64 | Cc1cccc(-c2ccc(CC3(C(N)=O)CCN(C(=O)Cc4ccccc4)CC3)cc2)c1 [CBK285780] | 105.238
65 | O=C(c1ccccc1F)N1C2CCC1CC(O)(c1cccnc1F)C2 (stereo not shown) [CBK284420] | 85.084
66 | O=C(CSCc1ccc(Cl)c(Cl)c1)Nc1cccnc1 [CBK268542] | 86.6173
67 | COc1ncc(-c2nccnc2NCc2cccnc2)c(OC)n1 [CBK036817] | 139.109
68 | Cn1ncc2c(NCCCN3CCCC(CO)C3)nc(C(C)(C)C)nc21 (stereo not shown) [CBK307082] | 65.1706
69 | COc1ccc(-c2nc(Nc3cccc(C(F)(F)F)c3)sc2CC(=O)O)cc1OC [CBK131693] | 67.1769
70 | Cc1cc(C)n(CCCNC(=O)N2CCC(c3nccs3)CC2)n1 [CBK304088] | 33.0193
71 | CC(C)(C)C1=CC2=NC3(CCC3)C3C[C@](O)(COCc4ccccc4)[C@@H](O)[C@@H]3N2O1 (stereo partly shown) [CBK303259] | 55.617
72 | O=c1[nH]c(=O)c2cc(S(=O)(=O)Nc3ccc(Cn4ccnc4)cc3)ccc2[nH]1 [CBK286383] | 76.1354
73 | CCN(CCC(C)c1ccccc1)CCN(C)C (stereo not shown) [CBK261914] | 100.896
74 | CCOC(=O)c1sc(NC(=O)C2CCCO2)c(C(N)=O)c1C (stereo not shown) [CBK058830] | 45.0014
75 | CCC(CO)Nc1nccnc1-c1ccoc1 (stereo not shown) [CBK088756] | 151.185
76 | Fc1ccc(-c2nccnc2NCc2ccncc2)cc1Cl [CBK037422] | 78.0122
77 | Cc1ccc(Br)cc1S(=O)(=O)N1CCN(C(c2ccccc2)c2ccccc2)CC1 [CBK263433] | 104.856
78 | Cc1cc(COc2nc3ccccc3nc2NCCC2=CCCCC2)no1 [CBK173982] | 54.2659
79 | COC[C@@H]1OC[C@@]2(C)C3CC[C@@H](O)[C@@H](CC(=O)NCc4ccccc4)[C@]3(C)CC[C@H]2O1 (stereo partly shown) [CBK289574] | 102.262

Reference: publication PMC12040169 (PLOS Biology, 2025)
